# From PubChem BioAssay (NCATS)
# This list was built around the results that the source calls inconclusive (neither active nor inactive); the mix of calls is not that of the screen. For part of these data: A potency beside an inconclusive call is a rough fit, not a confirmed value. Calls of active or inactive are those of the source. Calls come from the whole dose curve; as a rule, active = well fitted curve in the direction sought with a large enough effect; inconclusive = small, poorly fitted or top-dose-only effect, or another doubt; inactive = no such curve, though single readings can be large; an effect the other way counts as inactive or inconclusive.
# Legend:
# [1] = Primary qHTS for inhibitors of nuclear receptor binding SET domain protein 2 (NSD2) in an isogenic RCH-ACV NSD2 p.E1099K mutant (9B) (AID 1645876); settings: RCH-ACV NSD2 E1099K (9B) viability, CellTiter-Glo, 72 h; series mostly up to 44.9 µM; note: nearly all actives have a fitted effect of over 70% in size; note: potency is the fitted concentration of half-maximal effect
# [2] = Primary qHTS for inhibitors of nuclear receptor binding SET domain protein 2 (NSD2) in an RCH-ACV wild type WT cells (2C) (AID 1645877); settings: RCH-ACV (leukaemia line) NSD2 WT (2C) viability, CellTiter-Glo, 72 h; series mostly up to 44.9 µM; note: nearly all actives have a fitted effect of over 70% in size; note: potency is the fitted concentration of half-maximal effect
# [3] = target: Phospholipid hydroperoxide glutathione peroxidase GPX4 (Homo sapiens) (UniProt P36969); experiment: Primary qHTS Assay for Inhibitors of Recombinant Selenoprotein Glutathione Peroxidase 4 (GPX4) (AID 1845192); settings: recombinant GPX4, GR-coupled NADPH fluorescence, 15 min; series mostly up to 50 µM; note: nearly all actives have a fitted effect of over 65% in size; note: potency is the fitted concentration of half-maximal effect
# Method in brief: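 Steps: GPX4 plus compound, 30 min RT; add GR/GSH/NADPH master mix; start with cumene hydroperoxide; read 340/450 nm fluorescence at 0 and 15 min. Finals were 200 nM GPX4, 1 mM GSH, 0.5 mM CHP, 0.5 mM NADPH, 100 nM GR.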
# [4] = target: Glutathione peroxidase 1 (Homo sapiens) (UniProt P07203); experiment: Primary qHTS Assay for Inhibitors of Recombinant Selenoprotein Glutathione Peroxidase 1 (GPX1) (AID 1845191); settings: recombinant GPX1, GR-coupled NADPH fluorescence, 15 min; series mostly up to 48.8 µM; note: potency is the fitted concentration of half-maximal effect; nearly all actives have a fitted effect of over 65% in size
# Method in brief: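 GR-coupled readout: NADPH consumption tracked by fluorescence, ex 340/em 450 nm, at t=0 and after 15 min at RT. Final mix 10 nM GPX1, 1 mM GSH, 0.5 mM CHP, 0.5 mM NADPH, 100 nM GR, 0.01% BSA, following 30 min enzyme–compound preincubation.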
# [5] = target: Nuclear receptor subfamily 1 group I member 3 (Homo sapiens) (UniProt Q14994); experiment: Primary qHTS for antagonist of constitutive androstane receptor (CAR) against the NCATS DSHEA and TCM libraries (AID 1794836); settings: CAR reporter cell assay, antagonist mode, luciferase; series mostly up to 40 µM; note: potency is the fitted concentration of half-maximal effect
# Method in brief: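 HepG2-CYP2B6-hCAR cells, attached 5 h, given compounds plus CITCO agonist […], incubated 24 h at 37 C. Luciferase luminescence read, multiplexed with CellTiter-Fluor viability (Ex/Em 405/540 nm).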
# [6] = target: Cytochrome P450 3A4 (Homo sapiens) (UniProt P08684); experiment: qHTS for inhibitors of CYP3A4 against the NCATS DSHEA and TCM libraries (AID 1919971); settings: recombinant CYP3A4 enzyme activity, luminescence qHTS; note: potency is the fitted concentration of half-maximal effect
# Method in brief: (§1)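 Each CYP isoform and its pro-luciferin substrate, at isoform-specific final concentrations, were preincubated 15 min at RT with substances. NADPH regeneration solution (1x) started a 30-45 min reaction, and P450-Glo luminescence was read.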
# [7] = target: Cytochrome P450 2C9 (Homo sapiens) (UniProt P11712); experiment: qHTS for inhibitors of CYP2C9 against the NCATS DSHEA and TCM libraries (AID 1919973); settings: recombinant CYP2C9 enzyme activity, luminescence; series mostly up to 34.1 µM; note: potency is the fitted concentration of half-maximal effect
# Method in brief: as §1
# [8] = target: Cytochrome P450 2C19 (Homo sapiens) (UniProt P33261); experiment: qHTS for inhibitors of CYP2C19 against the NCATS DSHEA and TCM libraries (AID 1919974); settings: CYP2C19 enzyme inhibition, luminescence qHTS; series mostly up to 34.1 µM;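 note: luminescence from luciferin released by CYP2C19 oxidation of a pro-luciferin substrate; potency is the fitted concentration of half-maximal effect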
# Method in brief: as §1
# [9] = target: Cytochrome P450 1A2 (Homo sapiens) (UniProt P05177); experiment: qHTS for inhibitors of CYPIA2 against the NCATS DSHEA and TCM libraries (AID 1919976); settings: recombinant CYP1A2 enzyme activity, luminescence; series mostly up to 37 µM
# Method in brief: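 Reaction started with 1x NADPH regeneration solution and run 30-45 min, room temperature, protected from light, after compounds sat 15 min with CYP1A2 and pro-luciferin substrate. P450-Glo detection gave luminescence; furafylline served as control.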
# Tags give direction and shape of the fitted curve.
# Sequence of UniProt P36969 (P36969 whole entry, looked up): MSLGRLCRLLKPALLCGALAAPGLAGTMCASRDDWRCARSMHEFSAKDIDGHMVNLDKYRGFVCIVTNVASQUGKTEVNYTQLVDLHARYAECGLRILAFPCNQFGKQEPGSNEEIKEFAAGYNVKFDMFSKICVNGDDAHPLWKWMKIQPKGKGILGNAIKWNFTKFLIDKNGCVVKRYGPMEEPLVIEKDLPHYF
# Sequence of UniProt P11712 (P11712 whole entry, looked up): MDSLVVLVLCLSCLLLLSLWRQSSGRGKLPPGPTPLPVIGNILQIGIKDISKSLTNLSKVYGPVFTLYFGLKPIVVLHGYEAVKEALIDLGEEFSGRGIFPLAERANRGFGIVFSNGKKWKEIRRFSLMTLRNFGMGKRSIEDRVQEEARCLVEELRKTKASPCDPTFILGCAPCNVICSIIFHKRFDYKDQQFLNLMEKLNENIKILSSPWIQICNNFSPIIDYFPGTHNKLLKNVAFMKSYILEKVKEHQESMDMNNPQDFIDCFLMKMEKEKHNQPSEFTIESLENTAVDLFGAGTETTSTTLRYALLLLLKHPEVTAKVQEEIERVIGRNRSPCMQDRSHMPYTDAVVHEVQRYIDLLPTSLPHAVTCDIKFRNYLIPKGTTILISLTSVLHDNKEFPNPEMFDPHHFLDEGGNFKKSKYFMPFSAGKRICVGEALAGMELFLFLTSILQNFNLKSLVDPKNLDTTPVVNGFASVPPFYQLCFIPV
# Sequence of UniProt P07203 (P07203 whole entry, looked up): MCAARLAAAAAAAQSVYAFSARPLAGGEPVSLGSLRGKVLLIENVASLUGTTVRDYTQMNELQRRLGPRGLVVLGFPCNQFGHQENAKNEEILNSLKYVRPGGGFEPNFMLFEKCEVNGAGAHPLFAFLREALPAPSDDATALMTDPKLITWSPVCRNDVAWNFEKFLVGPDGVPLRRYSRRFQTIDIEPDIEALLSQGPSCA
# Sequence of UniProt P33261 (P33261 whole entry, looked up): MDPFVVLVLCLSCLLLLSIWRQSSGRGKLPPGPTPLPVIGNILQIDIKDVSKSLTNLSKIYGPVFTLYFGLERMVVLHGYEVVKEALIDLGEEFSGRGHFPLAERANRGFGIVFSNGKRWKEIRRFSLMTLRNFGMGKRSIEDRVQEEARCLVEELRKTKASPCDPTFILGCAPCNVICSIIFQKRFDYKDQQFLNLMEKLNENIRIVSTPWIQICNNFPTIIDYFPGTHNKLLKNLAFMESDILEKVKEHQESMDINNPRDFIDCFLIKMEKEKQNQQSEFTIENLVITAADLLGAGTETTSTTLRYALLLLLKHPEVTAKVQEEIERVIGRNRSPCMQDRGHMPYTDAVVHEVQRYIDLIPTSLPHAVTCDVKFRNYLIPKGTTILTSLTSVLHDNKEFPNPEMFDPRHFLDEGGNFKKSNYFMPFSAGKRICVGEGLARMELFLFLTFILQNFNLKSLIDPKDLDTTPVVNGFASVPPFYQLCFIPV
# Sequence of UniProt P05177 (P05177 whole entry, looked up): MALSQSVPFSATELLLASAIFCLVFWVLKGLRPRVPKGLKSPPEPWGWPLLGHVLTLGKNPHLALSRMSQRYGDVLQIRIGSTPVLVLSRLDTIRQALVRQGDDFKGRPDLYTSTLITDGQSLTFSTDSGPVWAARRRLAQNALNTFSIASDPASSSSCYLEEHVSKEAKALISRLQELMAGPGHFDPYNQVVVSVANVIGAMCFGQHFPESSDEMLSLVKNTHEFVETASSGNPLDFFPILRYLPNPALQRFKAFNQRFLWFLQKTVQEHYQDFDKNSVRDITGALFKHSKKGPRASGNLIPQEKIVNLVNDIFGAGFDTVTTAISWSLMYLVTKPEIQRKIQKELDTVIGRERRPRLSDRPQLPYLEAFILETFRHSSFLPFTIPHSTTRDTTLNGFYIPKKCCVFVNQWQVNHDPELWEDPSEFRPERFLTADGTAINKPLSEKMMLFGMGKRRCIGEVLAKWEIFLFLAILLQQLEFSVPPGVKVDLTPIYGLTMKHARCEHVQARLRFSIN
# Sequence of UniProt Q14994 (Q14994 whole entry, looked up): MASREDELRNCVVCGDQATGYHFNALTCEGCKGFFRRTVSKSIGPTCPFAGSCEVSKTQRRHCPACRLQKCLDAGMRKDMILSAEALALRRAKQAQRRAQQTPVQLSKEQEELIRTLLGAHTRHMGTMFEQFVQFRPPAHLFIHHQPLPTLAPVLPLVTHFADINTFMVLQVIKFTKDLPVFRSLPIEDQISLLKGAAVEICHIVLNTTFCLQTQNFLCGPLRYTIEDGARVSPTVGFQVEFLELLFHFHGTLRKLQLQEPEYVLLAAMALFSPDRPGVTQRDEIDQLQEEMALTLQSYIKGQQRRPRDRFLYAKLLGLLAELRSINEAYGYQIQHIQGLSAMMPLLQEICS
# Sequence of UniProt P08684 (P08684 whole entry, looked up, canonical isoform): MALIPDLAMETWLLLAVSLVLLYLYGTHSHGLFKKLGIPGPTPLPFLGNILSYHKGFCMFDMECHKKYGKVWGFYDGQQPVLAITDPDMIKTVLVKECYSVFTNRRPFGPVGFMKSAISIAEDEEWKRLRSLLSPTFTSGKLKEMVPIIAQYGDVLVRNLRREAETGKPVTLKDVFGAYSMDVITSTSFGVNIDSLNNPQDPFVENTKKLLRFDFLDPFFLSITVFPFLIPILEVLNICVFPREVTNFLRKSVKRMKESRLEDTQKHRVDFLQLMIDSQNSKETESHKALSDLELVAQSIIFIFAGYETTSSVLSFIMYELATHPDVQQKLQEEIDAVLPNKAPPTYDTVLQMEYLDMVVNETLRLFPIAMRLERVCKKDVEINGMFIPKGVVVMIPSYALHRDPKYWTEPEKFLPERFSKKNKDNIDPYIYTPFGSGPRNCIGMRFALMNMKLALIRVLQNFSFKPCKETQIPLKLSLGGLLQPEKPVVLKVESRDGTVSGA
structure (smiles),measurement,setting,value
NS(=O)(=O)c1ccc(NC(=S)N2CCN(C/C=C/c3ccccc3)CC2)cc1,Potency,[1],"inconclusive: 11.8 µM [inhibitor, partial curve]"
same,Potency,[2],"inconclusive: 14.8 µM [inhibitor, partial curve]"
C[C@@H]1C(=O)OC2[C@H](O)[C@]34[C@H]5C[C@@H](C(C)(C)C)[C@]36[C@@H](OC(=O)[C@@H]6O)O[C@@]4(C(=O)O5)[C@]21O (stereo partly drawn),Potency,[1],inactive
COc1ccccc1CN[C@H]1CCCN[C@H]1c1ccccc1,Potency,[1],inactive
same,Potency,[2],"inconclusive: 18.3 µM [inhibitor, partial curve, poor fit]"
Clc1cccc(-c2ccc(-c3nnc(CCCc4ccc5cccnc5n4)o3)cc2)c1,Potency,[1],inactive
N=C1CCCN1Cc1[nH]c(=O)[nH]c(=O)c1Cl,Potency,[1],inactive
O=C1NC(=O)[C@@H](c2cn3c4c(cccc24)CCC3)[C@@H]1c1c[nH]c2ccccc12,Potency,[1],active: 1.32 µM
C/C1=C\C[C@]2(C)C(=O)C(O)=C([C@H](C)CO)[C@H]2C/C=C(\C)[C@@H](O)CC/C(C)=C/CC1,Potency,[1],"inconclusive: 20.1 µM [inhibitor, single point]"
same,Potency,[2],"inconclusive: 17.9 µM [inhibitor, single point]"
O=C1NCCSc2c1sc1ccc(O)cc21,Potency,[1],active: 5.8 µM
CN1C[C@@H]2c3ccccc3Oc3ccc(Cl)cc3[C@H]2C1,Potency,[1],"inconclusive: 29.5 µM [inhibitor, single point]"
same,Potency,[2],"inconclusive: 37.2 µM [inhibitor, single point]"
CS[C@H]1SC[C@@H]2C(=O)N(C)[C@H](C(C)C)C(=O)OC[C@H](NC(=O)c3cnc4ccccc4n3)C(=O)N[C@H](C)C(=O)N(C)[C@H]1C(=O)N(C)[C@H](C(C)C)C(=O)OC[C@H](NC(=O)c1cnc3ccccc3n1)C(=O)N[C@H](C)C(=O)N2C,Potency,[1],active: 0.0015 µM
same,Potency,[2],active: 0.001 µM
C=C[C@H]1CN2CC[C@H]1C[C@@H]2C(O)c1ccnc2ccc(OC)cc12 (stereo partly drawn),Potency,[1],"inconclusive: 20.1 µM [inhibitor, single point]"
C=CC(=O)c1ccc2ccccc2c1,Potency,[1],"inconclusive: 29.1 µM [inhibitor, single point]"
CN(C)Cc1cccc(N=C(c2ccccc2)c2c(O)[nH]c3cc(C(N)=O)ccc23)c1,Potency,[1],"inconclusive: 23.5 µM [inhibitor, partial curve, poor fit]"
same,Potency,[2],"inconclusive: 29.1 µM [inhibitor, single point]"
COc1cc(/C=C/c2cc(O)cc(O[C@@H]3O[C@H](CO)[C@@H](O)[C@H](O)[C@H]3O)c2)ccc1O,Potency,[1],"inconclusive: 15.9 µM [inhibitor, single point]"
same,Potency,[2],"inconclusive: 15.9 µM [inhibitor, single point]"
O=C(Nc1cnccc1Cl)N1CCN(Cc2ccc3c(c2)OC(F)(F)O3)CC1,Potency,[1],"inconclusive: 14.8 µM [inhibitor, partial curve, poor fit]"
same,Potency,[2],"inconclusive: 16.6 µM [inhibitor, partial curve, poor fit]"
Cc1cc(C)cc(Oc2ccc(CNC(=O)[C@H](C)N)cc2C)c1,Potency,[1],active: 18.6 µM
same,Potency,[2],active: 18.6 µM
CC(=O)N1CCC(Nc2cc(C(=O)NC[C@H](O)CN3CCc4ccccc4C3)ncn2)CC1,Potency,[1],"inconclusive: 1.05 µM [inhibitor, full curve]"
same,Potency,[2],"inconclusive: 0.833 µM [inhibitor, full curve]"
COC(=O)C[C@@H]1C(C(=O)O)=CO[C@@H](O[C@@H]2O[C@H](CO)[C@@H](O)[C@H](O)[C@H]2O)/C1=C\COC(=O)/C=C/c1ccc(O)c(OC)c1,Potency,[1],inactive
CC[C@H]1OC(=O)[C@H](C)[C@@H](O[C@H]2C[C@@](C)(OC)[C@@H](O)[C@H](C)O2)[C@H](C)[C@@H](O[C@@H]2O[C@H](C)C[C@H](N(C)C)[C@H]2O)[C@@](C)(O)C[C@@H](C)[C@@H]2N[C@@H](COCCOC)OC([C@H]2C)[C@]1(C)O,Potency,[1],inactive
same,Potency,[2],inactive
Cc1cc(C)c(S(=O)(=O)N(CCc2cccc(Br)c2)Cc2ccc(-c3cccc(S(C)(=O)=O)c3)cc2)c(C)c1,Potency,[1],inactive
same,Potency,[2],inactive
CSC[C@H]1CN(Cc2c[nH]c3c(N)ncnc23)C[C@@H]1O,Potency,[1],inactive
CNS(=O)(=O)Nc1nccc(Cc2c(C)c3ccc(Oc4ncccn4)cc3oc2=O)c1F,Potency,[1],"inconclusive: 9.34 µM [inhibitor, partial curve]"
same,Potency,[2],"inconclusive: 5.9 µM [inhibitor, full curve]"
N#Cc1ccc(N(Cc2ccc(Br)cc2)n2cnnc2)cc1,Potency,[1],inactive
O=C1CCCC2=C1C(c1ncccc1Br)N=C(Nc1nc3ccccc3o1)N2 (stereo not drawn),Potency,[1],"inconclusive: 18.4 µM [inhibitor, single point]"
same,Potency,[2],"inconclusive: 23.1 µM [inhibitor, single point]"
CC(C)C[C@H](NC(=O)[C@H](Cc1ccccc1)NC(=O)OCc1ccccc1)C(=O)C=O,Potency,[1],"inconclusive: 29.5 µM [inhibitor, single point]"
same,Potency,[2],"inconclusive: 37.2 µM [inhibitor, single point]"
CO[C@H]1/C=C\O[C@@]2(C)Oc3c(C)c(O)c4c(O)c(c(/C=N\N5CCN(C6CCCC6)CC5)c(O)c4c3C2=O)NC(=O)/C(C)=C\C=C/[C@H](C)[C@H](O)[C@@H](C)[C@@H](O)[C@@H](C)[C@H](OC(C)=O)[C@@H]1C,Potency,[1],"inconclusive: 14.2 µM [inhibitor, single point]"
same,Potency,[2],"inconclusive: 11.2 µM [inhibitor, single point]"
COc1cc(-c2cn(C)c(=O)c3cnccc23)c(OC)cc1CN(C)C,Potency,[1],"inconclusive: 14.8 µM [inhibitor, partial curve]"
same,Potency,[2],active: 8.33 µM
Cc1[nH]nc2ncc(C(=O)N3CCC[C@H]3c3ccc(Cl)cc3)cc12,Potency,[1],"inconclusive: 13.2 µM [inhibitor, partial curve]"
O=C1S/C(=C\c2ccc(OCc3cccc(B(O)O)c3)cc2)C(=O)N1Cc1ccc(F)cc1,Potency,[1],"inconclusive: 0.0468 µM [inhibitor, full curve]"
same,Potency,[2],"inconclusive: 0.0934 µM [inhibitor, full curve]"
C=CC(=O)N1CC(N2CCN(C(=O)CNc3cc(C4(C)CC4)c(Cl)cc3O)CC2)C1,Potency,[1],active: 23.5 µM
same,Potency,[2],"inconclusive: 26.3 µM [inhibitor, single point]"
O=C(NOCCO)c1cc(CN2OCCCC2=O)c(F)c(F)c1Nc1ccc(I)cc1F,Potency,[1],inactive
same,Potency,[2],"inconclusive: 37.2 µM [inhibitor, partial curve, poor fit]"
same,Potency,[3],"inconclusive: 36 µM [inhibitor, single point]"
CCOCOC[C@H](C[C@H](C)C(=O)NO)NC(=O)c1ccc(Oc2ccccc2)cc1,Potency,[1],"inconclusive: 20.9 µM [inhibitor, partial curve]"
same,Potency,[2],"inconclusive: 23.5 µM [inhibitor, partial curve]"
Cc1nc2cccc(N)c2c(=O)n1C1CCC(=O)NC1=O (stereo not drawn),Potency,[1],"inconclusive: 0.525 µM [inhibitor, full curve]"
same,Potency,[2],"inconclusive: 0.662 µM [inhibitor, full curve]"
CC1OC(O[C@H]2[C@@H](O)C[C@@]3(C)C([C@H](O)C[C@]4(C)C3CC=C3C5CC(C)(C)CC[C@]5(C(=O)OC5OC(CO)C(O)C(O)C5OC5OCC(OC6OCC(OC7OCC(O)C(O)C7O)C(O)C6O)C(OC6OCC(O)(CO)C6O)C5O)CC[C@]34C)[C@]2(C)CO)C(O)C(O)C1O (stereo partly drawn),Potency,[1],"inconclusive: 4.87 µM [inhibitor, single point]"
same,Potency,[2],"inconclusive: 4.87 µM [inhibitor, single point]"
Cn1nccc1Nc1nccc(-c2cc3c(s2)C(C)(C)N(CCN2CCOCC2)C3=O)n1,Potency,[1],"inconclusive: 18.6 µM [inhibitor, partial curve]"
same,Potency,[2],"inconclusive: 14.8 µM [inhibitor, partial curve]"
same,Potency,[3],inactive
COc1cc2c(cc1OC)/C(=C/c1ccc(O)cc1)C(=O)N2,Potency,[1],"inconclusive: 23.1 µM [inhibitor, single point]"
same,Potency,[2],"inconclusive: 29.1 µM [inhibitor, single point]"
COc1cccc(-c2c(C)n(Cc3c(F)cccc3C(F)(F)F)c(=O)n(C[C@H](NCCCC(=O)O)c3ccccc3)c2=O)c1F,Potency,[1],"inconclusive: 37.2 µM [inhibitor, partial curve, poor fit] and inactive"
same,Potency,[2],inactive
OCCOc1ccc(/C(=C(/CCCl)c2ccccc2)c2ccccc2)cc1,Potency,[1],"inconclusive: 29.5 µM [inhibitor, single point]"
same,Potency,[2],"inconclusive: 29.5 µM [inhibitor, single point]"
NS(=O)(=O)Oc1ccc2c3c(c(=O)oc2c1)CCCCC3,Potency,[1],"inconclusive: 20.9 µM [inhibitor, single point]"
same,Potency,[2],"inconclusive: 18.6 µM [inhibitor, partial curve]"
same,Potency,[4],active: 4.09 µM
same,Potency,[3],active: 18 µM
O=C(O[C@@H]1Cc2c(O)cc(O)cc2O[C@H]1c1cc(O)c(O)c(O)c1)c1cc(O)c(O)c(O)c1,Potency,[1],"inconclusive: 18.4 µM [inhibitor, single point]"
same,Potency,[2],"inconclusive: 23.1 µM [inhibitor, single point]"
same,Potency,[5],"inconclusive: 2.24 µM [inhibitor, full curve, poor fit]"
same,Potency,[6],"inconclusive: 28.2 µM [inhibitor, partial curve]"
same,Potency,[7],active: 12.6 µM
same,Potency,[8],"inconclusive: 35.5 µM [inhibitor, single point]"
same,Potency,[9],inactive
